# Measured values taken from PubChem BioAssay (Tox21).
# Where “and” joins values, the source holds several entries; their conditions need not be identical. Equal entries are not always repeated. Inconclusive results, whose numbers are uncertain, are shown with a selection of clear calls. Potencies beside an inconclusive call are fits to weak or partial responses and may not hold up. Some structures have more than one record in an assay (separate samples or runs), and their calls can disagree. Calls of active or inactive are those of the source. Calls come from the whole dose curve; as a rule, active = well fitted curve in the direction sought with a large enough effect in the repeat runs; inconclusive = weak or mixed curves; inactive = no such curve, though single readings can be large; an effect the other way counts as inactive or inconclusive.
# Assays:
# [1] = A CellTox Green Cytotoxicity Assay to monitor cytotoxicity in HepG2 cells - 0 hour (AID 1224882); note: nearly all actives have a fitted effect of over 35% in size
# In short: (§1)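 Real-time cytotoxicity: fluorescence of a cell-impermeant cyanine dye binding DNA of dead HepG2 cells, measured repeatedly (0–40 h) during compound exposure at 37 C. Cells seeded 600/well with reagent, dosed after 5 h.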
# [2] = A CellTox Green Cytotoxicity Assay to monitor cytotoxicity in HepG2 cells - 16 hour (AID 1224876); note: nearly all actives have a fitted effect of over 45% in size
# In short: as §1
# [3] = qHTS RealTime-Glo MT Cell Viability Assay in HepG2 cells - 32 hour (AID 1224877); note: nearly all actives have a fitted effect of over 55% in size
# In short: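 Tox21 10K library screened in qHTS format on HepG2 cells carrying RealTime-Glo reagents. Compounds were added after a 5 h preincubation, and the luminescent signal from continuous culture was measured repeatedly during 40 h treatment.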
# [4] = A CellTox Green Cytotoxicity Assay to monitor cytotoxicity in HepG2 cells - 24 hour (AID 1224878); note: nearly all actives have a fitted effect of over 45% in size
# In short: as §1
# [5] = qHTS RealTime-Glo MT Cell Viability Assay in HEK293 cells - 0 hour (AID 1224880); note: nearly all actives have a fitted effect of over 45% in size
# In short: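 Luminescence, which tracks viable cell number through reduction of the prosubstrate to a NanoLuc substrate, was read over continuous 37 C culture. Cells (600/well) were premixed with reagent and rested 5 h before 23 nL of compound in DMSO was pinned.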
# [6] = A CellTox Green Cytotoxicity Assay to monitor cytotoxicity in HEK293 cells - 32 hour (AID 1224881); note: nearly all actives have a fitted effect of over 40% in size
# In short: (§2)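 Fluorescence from a DNA-binding dye excluded by viable cells was measured repeatedly in the same HEK293 wells (600 cells/well) during continuous compound exposure at 37 C. Each assay gives one read point: 0, 8, 16, 24, 32 or 40 h.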
# [7] = A CellTox Green Cytotoxicity Assay to monitor cytotoxicity in HEK293 cells - 24 hour (AID 1224875); note: nearly all actives have a fitted effect of over 45% in size
# In short: as §2
# [8] = A CellTox Green Cytotoxicity Assay to monitor cytotoxicity in HEK293 cells - 8 hour (AID 1224884); note: nearly all actives have a fitted effect of over 35% in size
# In short: as §2
# [9] = A CellTox Green Cytotoxicity Assay to monitor cytotoxicity in HepG2 cells - 40 hour (AID 1224879); note: nearly all actives have a fitted effect of over 40% in size
# In short: as §1
# [10] = A CellTox Green Cytotoxicity Assay to monitor cytotoxicity in HepG2 cells - 32 hour (AID 1224883); note: nearly all actives have a fitted effect of over 50% in size
# In short: as §1
# Potency is the fitted concentration of half-maximal effect; tags give direction and shape of the fitted curve.
smiles,measurement,setting,value
ClC1=C(Cl)[C@]2(Cl)[C@@H]3[C@@H]4C[C@@H]([C@H]5O[C@@H]45)[C@@H]3[C@@]1(Cl)C2(Cl)Cl,Potency,[1],"inconclusive: 54.9 µM [activator, single point]"
C=CCC1=C(C)C(OC(=O)C2C(C=C(C)C)C2(C)C)CC1=O (stereo not drawn),Potency,[1],"inconclusive: 61.6 µM [activator, single point]"
CCCCCCCc1ccc(O)cc1,Potency,[2],active: 21.9 µM
c1cc[c]([Hg][c]2ccccc2)cc1,Potency,[2],inactive
Oc1ccc(C2(c3ccc(O)cc3)c3ccccc3-c3ccccc32)cc1,Potency,[2],"inconclusive: 61.6 µM [activator, single point]"
same,Potency,[3],"inconclusive: 54.9 µM [cytotoxic, single point]"
Nc1nc(N)nc(NC2CC2)n1,Potency,[2],"inconclusive: 26.8 µM [activator, single point]"
same,Potency,[4],"inconclusive: 26.8 µM [activator, single point]"
Cc1cc(Cl)ccc1OC(C)C(=O)O (stereo not drawn),Potency,[2],"inconclusive: 2.45 µM [activator, full curve, poor fit]"
O=C1C(Cl)=C(Cl)C(=O)C(Cl)=C1Cl,Potency,[2],active: 48.8 µM and active: 19.5 µM
same,Potency,[3],"inconclusive: 48.8 µM [cytotoxic, partial curve] and inconclusive: 21.9 µM [cytotoxic, partial curve]"
same,Potency,[5],active: 3.08 µM and active: 9.77 µM
same,Potency,[6],active: 21.8 µM and active: 21.9 µM
Clc1ccc(C(c2ccccc2Cl)C(Cl)(Cl)Cl)cc1 (stereo not drawn),Potency,[7],"inconclusive: 43.9 µM [activator, partial curve, poor fit]"
same,Potency,[8],"inconclusive: 49.3 µM [activator, single point]"
ClC1=C(Cl)C2(Cl)C(CBr)CC1(Cl)C2(Cl)Cl (stereo not drawn),Potency,[2],"inconclusive: 54.9 µM [activator, single point]"
same,Potency,[3],"inconclusive: 54.9 µM [cytotoxic, single point]"
same,Potency,[4],"inconclusive: 54.9 µM [activator, single point]"
same,Potency,[9],"inconclusive: 54.9 µM [activator, single point]"
same,Potency,[10],"inconclusive: 54.9 µM [activator, single point] and inactive"
same,Potency,[8],"inconclusive: 54.9 µM [activator, single point]"
Nc1ccncc1,Potency,[2],inactive
CC[C@H](C)[C@H]1O[C@]2(C=C[C@@H]1C)C[C@@H]1C[C@@H](C/C=C(\C)[C@@H](O[C@H]3C[C@H](OC)[C@@H](O[C@H]4C[C@H](OC)[C@@H](O)[C@H](C)O4)[C@H](C)O3)[C@@H](C)/C=C/C=C3\CO[C@@H]4[C@H](O)C(C)=C[C@@H](C(=O)O1)[C@]34O)O2,Potency,[2],"inconclusive: 32.5 µM [activator, single point]"
same,Potency,[3],"inconclusive: 28.9 µM [cytotoxic, partial curve]"
same,Potency,[4],"inconclusive: 32.5 µM [activator, single point]"
same,Potency,[9],"inconclusive: 32.5 µM [activator, single point]"
same,Potency,[10],"inconclusive: 32.5 µM [activator, single point]"
CC(C)(c1ccccc1)c1ccc(O)cc1,Potency,[2],"inconclusive: 61.1 µM [activator, single point]"
same,Potency,[3],"inconclusive: 43.6 µM [cytotoxic, partial curve]"
same,Potency,[4],active: 48.6 µM and active: 21.9 µM
CCC(C)(C#N)N=NC(C)(C#N)CC (stereo not drawn),Potency,[2],inactive
Oc1ccc2ccc3cccc4ccc1c2c34,Potency,[2],"inconclusive: 54.9 µM [activator, single point]"
same,Potency,[3],"inconclusive: 54.9 µM [cytotoxic, single point]"
same,Potency,[4],"inconclusive: 54.9 µM [activator, single point]"
same,Potency,[9],active: 54.9 µM
same,Potency,[5],"inconclusive: 12.3 µM [falling, partial curve, poor fit]"
same,Potency,[8],"inconclusive: 61.6 µM [activator, partial curve, poor fit]"
O=C(Cc1ccccc1)OCCc1ccccc1,Potency,[2],inactive
O=C(O)c1cc[c]([Hg][Cl])cc1,Potency,[2],active: 38.9 µM
same,Potency,[3],active: 24.5 µM
same,Potency,[4],active: 27.5 µM
CCCOCC(=Nc1ccc(Cl)cc1C(F)(F)F)n1ccnc1,Potency,[2],active: 43.6 µM
same,Potency,[3],"inconclusive: 48.9 µM [cytotoxic, partial curve]"
same,Potency,[9],active: 43.6 µM
same,Potency,[8],active: 54.9 µM
CN1CCC(O)(c2ccc(F)cc2)C(C(=O)c2ccc(F)cc2)C1 (stereo not drawn),Potency,[2],"inconclusive: 23.9 µM [activator, single point]"
same,Potency,[3],"inconclusive: 23.9 µM [cytotoxic, single point]"
same,Potency,[4],"inconclusive: 26.8 µM [activator, single point]"
same,Potency,[9],"inconclusive: 26.8 µM [activator, single point]"
same,Potency,[1],"inconclusive: 26.8 µM [activator, single point]"
Cn1cc(C2=C(c3cn(C4CCN(Cc5ccccn5)CC4)c4ccccc34)C(=O)NC2=O)c2ccccc21,Potency,[2],"inconclusive: 21.3 µM [activator, partial curve, poor fit]"
same,Potency,[3],"inconclusive: 19 µM [cytotoxic, partial curve]"
same,Potency,[9],"inconclusive: 21.3 µM [activator, partial curve, poor fit]"
CCC(=O)O[C@H]1CC[C@H]2[C@@H]3CCC4=CC(=O)CC[C@]4(C)[C@H]3CC[C@]12C,Potency,[2],"active: 38.9 µM and inconclusive: 26.8 µM [activator, single point]"
same,Potency,[3],"inconclusive: 43.6 µM [cytotoxic, partial curve, poor fit]"
same,Potency,[1],"inconclusive: 23.9 µM [activator, single point]"
same,Potency,[10],"active: 43.6 µM and inconclusive: 26.8 µM [activator, single point]"
same,Potency,[8],active: 34.7 µM
O=C(N[C@H]1N=C(c2ccccc2F)c2cccc3c2N(CC3)C1=O)c1cc2ccccc2[nH]1,Potency,[2],"inconclusive: 9.52 µM [activator, full curve, poor fit]"
ClC1=C(Cl)C2(Cl)C3C(Cl)C(Cl)CC3C1(Cl)C2(Cl)Cl (stereo not drawn),Potency,[2],"inconclusive: 54.8 µM [activator, single point] and inconclusive: 54.9 µM [activator, single point]"
same,Potency,[3],"inconclusive: 54.8 µM [cytotoxic, single point] and inconclusive: 54.9 µM [cytotoxic, single point]"
same,Potency,[4],"inconclusive: 54.8 µM [activator, single point] and inconclusive: 54.9 µM [activator, single point]"
same,Potency,[9],"inconclusive: 54.8 µM [activator, single point] and inconclusive: 54.9 µM [activator, single point]"
same,Potency,[8],"inconclusive: 61.6 µM [activator, single point]"
CC(C)CC(C)(c1ccc(O)cc1)c1ccc(O)cc1,Potency,[2],"inconclusive: 38.9 µM [activator, partial curve, poor fit]"
same,Potency,[3],"inconclusive: 43.6 µM [cytotoxic, partial curve]"
same,Potency,[9],"inconclusive: 43.6 µM [activator, partial curve, poor fit]"
same,Potency,[5],"inconclusive: 55.1 µM [falling, partial curve, poor fit]"
same,Potency,[6],"inconclusive: 21.9 µM [activator, full curve, poor fit]"
same,Potency,[10],"inconclusive: 43.6 µM [activator, partial curve, poor fit]"
same,Potency,[8],active: 24.6 µM
O=S1OCC2C(CO1)C1(Cl)C(Cl)=C(Cl)C2(Cl)C1(Cl)Cl (stereo not drawn),Potency,[2],"inconclusive: 55 µM [activator, single point]"
same,Potency,[3],active: 54.9 µM
same,Potency,[4],"inconclusive: 55 µM [activator, single point]"
same,Potency,[9],"inconclusive: 55 µM [activator, single point]"
same,Potency,[5],"inconclusive: 55 µM [rising, partial curve, poor fit]"
same,Potency,[10],"inconclusive: 55 µM [activator, single point]"
same,Potency,[8],"inconclusive: 55 µM [activator, single point] and inconclusive: 54.9 µM [activator, single point]"
O=[N+]([O-])C(Br)(CO)CO,Potency,[2],"inconclusive: 54.9 µM [activator, single point]"
same,Potency,[3],"inconclusive: 54.9 µM [cytotoxic, single point]"
same,Potency,[4],"inconclusive: 54.9 µM [activator, single point]"
same,Potency,[9],"inconclusive: 54.9 µM [activator, single point]"
same,Potency,[10],"inconclusive: 54.9 µM [activator, single point]"
CC(=O)Nc1ccc2c(c1)Cc1ccccc1-2,Potency,[2],inactive
ClC1=C(Cl)[C@]2(Cl)[C@H]3[C@H]([C@@H]4C=C[C@H]3C4)[C@@]1(Cl)C2(Cl)Cl,Potency,[2],"inconclusive: 48.9 µM [activator, partial curve, poor fit]"
same,Potency,[3],"inconclusive: 61.6 µM [cytotoxic, partial curve, poor fit] and inconclusive: 54.9 µM [cytotoxic, single point]"
same,Potency,[4],"inconclusive: 48.9 µM [activator, partial curve, poor fit]"
same,Potency,[9],"inconclusive: 54.9 µM [activator, partial curve, poor fit]"
same,Potency,[1],inactive
ClC1=C(Cl)C2(Cl)C3C(Cl)C=CC3C1(Cl)C2(Cl)Cl (stereo not drawn),Potency,[2],"inconclusive: 55.2 µM [activator, single point] and inconclusive: 54.9 µM [activator, single point]"
same,Potency,[3],"inconclusive: 55.2 µM [cytotoxic, single point] and inconclusive: 54.9 µM [cytotoxic, single point]"
same,Potency,[9],"inconclusive: 55.2 µM [activator, single point] and inconclusive: 54.9 µM [activator, single point]"
same,Potency,[10],"inconclusive: 55.2 µM [activator, single point]"
